Hit rate of the full screen: of about 310,000 compounds, about 14,000 (4.5%) showed an effect of 50% or more. The effect is printed as a negative number. Some of the results follow.
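Note: peak tail current of the secondary pulse compared with the same well before compound.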

The target in this assay is human ether-à-go-go-related gene (hERG) potassium channel (human, UniProt Q12809). Description: primary screen, population patch clamp on CHO cells stably expressing hERG.
Sequence of human ether-à-go-go-related gene (hERG) potassium channel (Q12809 whole entry, looked up): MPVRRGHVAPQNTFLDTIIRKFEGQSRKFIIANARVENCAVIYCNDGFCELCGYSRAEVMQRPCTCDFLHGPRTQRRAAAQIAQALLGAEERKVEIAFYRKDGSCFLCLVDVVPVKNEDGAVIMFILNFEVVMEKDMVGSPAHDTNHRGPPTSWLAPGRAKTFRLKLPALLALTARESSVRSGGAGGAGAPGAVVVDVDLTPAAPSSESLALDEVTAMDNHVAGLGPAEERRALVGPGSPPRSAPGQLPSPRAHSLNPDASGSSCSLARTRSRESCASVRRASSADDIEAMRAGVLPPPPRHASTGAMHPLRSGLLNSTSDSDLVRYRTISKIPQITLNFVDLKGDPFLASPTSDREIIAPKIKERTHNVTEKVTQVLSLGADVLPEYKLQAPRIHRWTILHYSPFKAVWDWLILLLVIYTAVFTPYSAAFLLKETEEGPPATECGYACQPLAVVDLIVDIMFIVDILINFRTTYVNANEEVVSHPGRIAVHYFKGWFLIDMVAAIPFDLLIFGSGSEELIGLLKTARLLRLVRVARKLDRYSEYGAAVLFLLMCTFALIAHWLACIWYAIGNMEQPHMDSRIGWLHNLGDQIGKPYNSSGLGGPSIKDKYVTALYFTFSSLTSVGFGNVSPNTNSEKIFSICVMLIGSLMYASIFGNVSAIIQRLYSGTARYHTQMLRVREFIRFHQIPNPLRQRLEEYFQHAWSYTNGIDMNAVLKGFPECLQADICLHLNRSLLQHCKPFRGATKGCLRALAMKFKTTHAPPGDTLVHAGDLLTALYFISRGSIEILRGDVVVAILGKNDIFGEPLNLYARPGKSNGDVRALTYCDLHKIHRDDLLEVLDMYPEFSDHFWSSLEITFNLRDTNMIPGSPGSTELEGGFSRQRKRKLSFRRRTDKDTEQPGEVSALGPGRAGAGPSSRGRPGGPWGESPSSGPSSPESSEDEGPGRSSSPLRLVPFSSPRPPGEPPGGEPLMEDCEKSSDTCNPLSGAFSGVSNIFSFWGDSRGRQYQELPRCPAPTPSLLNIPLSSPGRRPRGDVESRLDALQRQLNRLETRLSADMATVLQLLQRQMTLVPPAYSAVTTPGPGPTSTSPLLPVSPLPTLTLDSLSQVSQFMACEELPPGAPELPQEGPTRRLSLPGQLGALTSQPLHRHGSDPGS
For `CCCN1Cc2cccc(C(=O)N3CCN(c4ccccc4)CC3)c2C1=O`, the “hERG current change (%, negative = inhibition) at 10uM” value worked out at 6.02%.
Next, `O=C(CSc1nnc2ccccn12)NC(=O)Cc1ccccc1`: 29.1%; `COc1ccc(C)cc1NC(=O)C1CCCN(S(=O)(=O)c2cccc3nonc23)C1` (stereo not drawn): 2.09%.
The result for `O=C(NNC(=O)c1cccc2ccccc12)c1ccccc1O` reads 4.19%.
The result for `OCC[C@@H]1C[C@H](O)[C@@H](O)[C@@]2(CCCO2)O1` reads 1.51%; that for `CC(=O)OCCCCON1C(=O)c2ccccc2C1=O`, 20.4%; that for `O=C(Nc1cccc(OC(=O)c2cccnc2)c1)c1cccnc1`, 5.55%.
Take `COc1ccc(N=Cc2c(O)[nH]c3ccccc23)cc1`: the “hERG current change (%, negative = inhibition) at 10uM” value was 0.417%.
The result for `CC1CCc2nc3ccccc3c(C(=O)OCC(=O)N(C)C3CCS(=O)(=O)C3)c2C1` (stereo not drawn) reads -2.95%.
For `Cc1c(CC(=O)O)c(=O)oc2cc(OCc3ccc(F)cc3Cl)ccc12`, the “hERG current change (%, negative = inhibition) at 10uM” value was 17.1%.
Next, `CCc1ccccc1OCC(=O)Nc1cccc(S(=O)(=O)NC2=NCCCCC2)c1`: -20.6%.
Next, `COc1cccc2c1OC1(CCN(C(C)C)CC1)N1N=C(c3cccnc3)CC21` (stereo not drawn): -9.03%; `COc1ccc(Nc2cc(C)c3ccccc3n2)cc1`: 4.57%; `Fc1ccc(CSc2nncn2NCc2ccccc2)cc1`: -10.2%.
For the compound `Cc1[nH]c2ccccc2c1C(=O)CN1CC=C(c2ccccc2)CC1`, the “hERG current change (%, negative = inhibition) at 10uM” value was -52.4%.
Next, `CCOC(=O)C1CCCN(c2cc(=O)n(-c3ccccc3Cl)c(=O)[nH]2)C1` (stereo not drawn): 9.43%; `O=C(Nc1cccc(S(=O)(=O)NC2=NCCC2)c1)C1CCC1`: 9.46%; `O=C(NN1CCOCC1)c1ccco1`: 11%.
With `COc1cc(C2(O)CCCCC2C)cc(OC)c1OC` (stereo not drawn), the “hERG current change (%, negative = inhibition) at 10uM” value came to 15.9%.
The result for `CSCCC(NC(=O)c1ccccc1)C(=O)O` (stereo not drawn) reads 12%; that for `O=C(NCC1COc2ccccc2O1)c1ccc(Cl)cc1` (stereo not drawn), -10.8%; that for `CC1/C(=N/O)CC(c2ccco2)NC1c1ccco1` (stereo not drawn), 15.5%.
Consider `CCc1ccc(C(=O)NC(=S)NCc2cccnc2)cc1`, for which the “hERG current change (%, negative = inhibition) at 10uM” value is -40.7%.
The result for `CN1CCN(S(=O)(=O)c2ccc3c(c2)NC(=O)C2CCCN32)CC1` (stereo not drawn) reads 16.4%; that for `NC(=S)N/N=C1\CC(n2nnnc2-c2ccccc2)C2COC1O2` (stereo not drawn), 8.14%.
Next, `CCCCOc1cccc(C(=O)O)c1`: -4.57%; `O=C(COC(=O)c1ccc(Cl)nc1)Nc1cccnc1Cl`: 14.6%; `CCCC(=O)c1cc(-c2nc3ccccc3n2C)n(C)c1`: -20%.
Consider `O=C(Nc1ccc(CN2CCOCC2)cc1)c1ccccc1F`, for which the “hERG current change (%, negative = inhibition) at 10uM” value is listed as -1.31%.
Next, `CCn1c(SCC(=O)NCc2ccc3c(c2)OCO3)nnc1-c1ccco1`: -5.03%; `Cc1c(C)n(Cc2ccccc2)c2ncnc(NCCCN(C)C)c12`: -28.4%.
The result for `CCOc1cccc(-c2c(C(=O)N/N=C/c3ccco3)nnn2-c2nonc2N)c1` reads 6.62%.
Next, `CCCCOC(=O)Nc1nc(C)c(C(=O)OCC)s1`: -3.4%; `NC(=O)c1cnn(C2CCS(=O)(=O)C2)c1` (stereo not drawn): 14.3%.
For `O=C(O)COCC(=O)Nc1cc(C(F)(F)F)cc(C(F)(F)F)c1`, the “hERG current change (%, negative = inhibition) at 10uM” value is listed as 3.82%.
The result for `O=c1c(Cc2ccc(Cl)cc2Cl)c(O)ccn1CC(F)(F)F` reads 12.7%; that for `CCN(CC)C(=O)c1cn(-c2ccccc2)nc1-c1ccc2c(c1)OCCO2`, -3.56%.
Next, `Nc1ccc(C(=O)N2CCN(S(=O)(=O)/C=C/c3ccccc3)CC2)cc1[N+](=O)[O-]`: -43.9%.
The result for `CC(NC(=O)c1ccc2c(c1)OCO2)C(c1cccs1)N1CCOCC1` (stereo not drawn) reads 4.45%.
`CCN(CCCNC(=O)C1CCN(C(=O)c2cc3sccc3n2C)CC1)Cc1ccccc1`: the “hERG current change (%, negative = inhibition) at 10uM” value is recorded as -38.4%.
Next, `CC(CNS(=O)(=O)c1ccccc1)(c1ccccc1)N1CCCCC1` (stereo not drawn): 4.54%; `Cc1cc(C)n(-c2nc3ccccc3nc2Nc2ccc3c(c2)OCO3)n1`: 13.8%; `CC1CCN(CC[C@H]2CCCN2S(=O)(=O)c2cccc(O)c2)CC1.Cl`: -22.4%.
For `NNc1nc(-c2ccccc2Cl)nc2sc3c(c12)CCCC3`, the “hERG current change (%, negative = inhibition) at 10uM” value came out at 6.73%.
For the compound `COc1ccc(-c2nnnn2C)cc1S(=O)(=O)NCc1ccccc1`, the “hERG current change (%, negative = inhibition) at 10uM” value was -13.9%.
Next, `C[C@H]1O[C@H]1P(=O)([O-])[O-].[Na+]`: 12.1%; `Cc1ccc(C)c(S(=O)(=O)N2CCN(CC(=O)Nc3ccc4c(c3)CCC4)CC2)c1`: -0.408%.
For the compound `CCOC(=O)C1CCN(C(=O)Cn2c(=O)oc3cc(S(=O)(=O)N4CCCC4)ccc32)CC1`, the “hERG current change (%, negative = inhibition) at 10uM” value is listed as -4.92%.
Next, `COC(=O)c1cc2c(C)[nH]c(C)c2cc(C(=O)OC)c1=O`: 1.72%; `O=C1OCCN1C(=O)[C@H]1[C@H](c2ccc([N+](=O)[O-])cc2)C(c2cccc(Cl)c2)=NN1c1ccccc1`: 5.99%.
Next, `CC1(C)CC(=O)C/C(=N/NC(=O)CCCOc2ccc(Cl)cc2Cl)C1`: -22.8%.
The result for `Cc1cc(NC(=O)CSCC(=O)N2CCN(c3cccc(C(F)(F)F)c3)CC2)no1` reads -11.3%; that for `Cc1cc(=O)oc2cc(NC(=O)c3cc4ccccc4o3)ccc12`, -0.75%.
Consider `COCCNC(=O)/C(C#N)=C/c1c(F)cccc1Cl`, for which the “hERG current change (%, negative = inhibition) at 10uM” value came to 31.1%.
For `Cc1sc(N/N=C/C=C/c2ccccc2)nc1-c1ccccc1`, the “hERG current change (%, negative = inhibition) at 10uM” value is on record as 8.54%.
The result for `CCc1ccc2[nH]c3nc(SCCN4CCOCC4)nnc3c2c1` reads 4.48%; that for `CCN(CC)c1ccc(N2C(=O)/C(=C\c3cccnc3)SC2=S)cc1`, 8.51%.
Regarding `CCOc1ccccc1C1C2CCCCC2(O)CCN1C(=O)c1cccs1` (stereo not drawn), the “hERG current change (%, negative = inhibition) at 10uM” value was -15.5%.
As for `Cn1c(C(=O)N2CCN(Cc3ccccc3)CC2)cc2c(=O)n(C)c3ccccc3c21`, the “hERG current change (%, negative = inhibition) at 10uM” value is -15.8%.
Next, `CN(CC1CCCO1)S(=O)(=O)c1ccc(C(=O)Nc2ccc3c(c2)OCO3)cc1` (stereo not drawn): -5.12%; `CCOC(=O)c1sc2nc[nH]c(=O)c2c1C`: 9.87%.
Next, `Cc1nc2nc(-c3ccccc3)cc(=O)n2[nH]1`: 11.8%; `O=C(Nc1cccc(NC(=O)c2ccc(Br)cc2)c1)c1ccccc1`: 18%; `O=C(CO/N=C/c1ccc(OC(F)F)cc1)NC1CCCC1`: -49%.
Next, `CN(Cc1c(F)cccc1Cl)c1nnnn1-c1ccccc1`: -1.81%.
As to `Oc1ccccc1/C=N/n1c2ccccc2c2ccccc21`, the “hERG current change (%, negative = inhibition) at 10uM” value is on record as 7.15%.
Next, `Cc1ccccc1-c1nnc(CN2CCN(C(=O)c3ccco3)CC2)o1`: -14.2%; `COc1ccc(Br)cc1/C=N/NC(=O)CN1CCN(Cc2ccccc2)CC1`: -33.1%; `Cc1cc(C)c(N)cc1C`: 14.6%.
The result for `COc1ccccc1N1CCN(C2CCCN(C(=O)CCC(C)=O)C2)CC1` (stereo not drawn) reads 14.9%; that for `COc1ccc([C@H]2CC(=O)C=C(c3ccc(O)cc3)C2)cc1OC`, -2.35%.
Next, `Cl.NS(=O)(=O)c1ccc(CCNCc2ccccc2OCc2ccc(F)cc2)cc1`: -74.5%.
`O=C(Nc1ccc2c(c1)CN(Cc1ccccc1O)CC2)C1CCCO1` (stereo not drawn): the “hERG current change (%, negative = inhibition) at 10uM” value is -0.472%.
Next, `O=C(CN1C(=O)c2cccc([N+](=O)[O-])c2C1=O)OCC(=O)N1CCCCC1`: 1.09%.
With `Cc1ccc2c(NC(=O)c3ccco3)cccc2n1`, the “hERG current change (%, negative = inhibition) at 10uM” value was found to be 0.511%.
Consider `Cc1[nH]c(=O)[nH]c(=O)c1Cc1cccc2ccccc12`, for which the “hERG current change (%, negative = inhibition) at 10uM” value amounted to 15.2%.
Next, `COc1cccc(-c2cc3nc(-c4ccccc4)cc(N4CCCC(O)C4)n3n2)c1` (stereo not drawn): 10.6%.
The result for `COc1cccc2c1C(=O)c1c(O)c3c(c(O)c1C2=O)C[C@@](O)(C(=O)CO)C[C@@H]3O[C@H]1C[C@H](N)[C@@H](O)[C@H](C)O1.Cl` reads 20.5%; that for `COc1ccc(Cl)cc1NS(=O)(=O)c1cccc(C(=O)NCC(c2ccco2)N(C)C)c1` (stereo not drawn), -2.01%.
As for `COC(=O)C1=C(c2c(C)noc2C)C[C@@H]2CC[C@H]1N2C(=O)N1CCC(O)(c2ccc(Cl)cc2)CC1`, the “hERG current change (%, negative = inhibition) at 10uM” value is on record as -35.8%.
Next, `Cc1nc2ccc(NC(=O)N(C(C)C)C(C)C)cc2s1`: -1.31%; `CCN(C(=O)Cc1ccc(Br)cc1)C1CCCCC1`: -15.3%.
The result for `Cc1n[nH]c(C)c1-c1nc2ccccc2[nH]1` reads 0.975%; that for `CCn1nc(C(=O)NNC(=O)c2cc(Cl)ccc2OC)c2ccccc2c1=O`, -17.5%; that for `Cc1cccc(NC(=O)CN2CCC(NC(=O)C3CCCCC3)CC2)c1C`, 0.0433%.
`O=C(Nc1cccc(F)c1)c1cc(S(=O)(=O)N2CCOCC2)cs1`: the “hERG current change (%, negative = inhibition) at 10uM” value is reported as -18%.
Next, `CC1=C(C(=O)OCC(C)C)C(c2cccc(F)c2)N2C(=O)C(C)SC2=N1` (stereo not drawn): 4.25%.
The result for `CC(C)Oc1cccc(C(=O)C2CCCN(Cc3cnc(N4CCCC4)s3)C2)c1` (stereo not drawn) reads -47.1%.
Turning to `CCOc1cc(NS(=O)(=O)c2ccc(NC(C)=O)cc2)c(OCC)cc1NC(=O)C(C)C`, the “hERG current change (%, negative = inhibition) at 10uM” value is 10.3%.
Next, `O=C1NC(SCCCF)=N/C1=C/c1ccc(-n2cncn2)cc1`: -4.47%.

(Values after publication PMC4336329 (PLoS ONE, 2015).)
